Some of the results follow. No stated cut-off is given here; in the data, active = 3.2 or more and inactive = the rest. Only a few entries rise above the background.
What was measured:
Assay in all cases: enrichment score (SH2-bound / input frequency) (ratio); bacterial display of known human phosphotyrosine sites (pTyr-Var adds point mutants) read by sequencing; higher = stronger binding; tyrosines were phosphorylated by kinases first
Conditions in all cases: peptide library: pTyr-Var
SHP2 C-SH2 domain E139D = target: SHP2 C-SH2 domain E139D
[1] = target: SHP2 C-SH2 domain wild-type
SHP2 N-SH2 domain L43F = target: SHP2 N-SH2 domain L43F
SHP2 N-SH2 domain T42A = target: SHP2 N-SH2 domain T42A
SHP2 N-SH2 domain T52S = target: SHP2 N-SH2 domain T52S
[2] = target: SHP2 N-SH2 domain wild-type

Measured: enrichment score
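Further: displayed peptides selected on beads carrying the immobilized SH2 domain, with library peptides lacking any tyrosine serving as negative controls.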

B1: TXNRD2_Y70 (peptide)
chain: VAVVDYVEPSP
inactive: SHP2 C-SH2 domain E139D 0.796 | [1] 0.567 | SHP2 N-SH2 domain L43F 0.789 | SHP2 N-SH2 domain T42A 0.833 | SHP2 N-SH2 domain T52S 0.76 | [2] 0.812

B2: TYROBP_Y111 (peptide)
chain: NTQRPYYKGGG
inactive: SHP2 C-SH2 domain E139D 0.953 | [1] 1.16 | SHP2 N-SH2 domain L43F 0.84 | SHP2 N-SH2 domain T42A 0.805 | SHP2 N-SH2 domain T52S 0.724 | [2] 0.889

B3: TUBA4A_Y161_Y161C (peptide)
chain: RLSVDCGKKSK
inactive: SHP2 C-SH2 domain E139D 1.25 | [1] 1.07 | SHP2 N-SH2 domain L43F 0.851 | SHP2 N-SH2 domain T42A 1.09 | SHP2 N-SH2 domain T52S 1.4 | [2] 2.44

B4: TUBA4A_Y210_R215C (peptide)
chain: DNEAIYDICRC
inactive: SHP2 C-SH2 domain E139D 0.961 | [1] 0.942 | SHP2 N-SH2 domain L43F 0.913 | SHP2 N-SH2 domain T42A 0.651 | SHP2 N-SH2 domain T52S 1.12 | [2] 0.853

B5: TTR_Y125_R124H (peptide)
chain: SGPRHYTIAAL
inactive: SHP2 C-SH2 domain E139D 1.36 | [1] 1.45 | SHP2 N-SH2 domain L43F 1.51 | SHP2 N-SH2 domain T42A 1.55 | SHP2 N-SH2 domain T52S 1.61 | [2] 1.45

B6: TUBA1A_Y399 (peptide)
chain: KFDLMYAKRAF
inactive: SHP2 C-SH2 domain E139D 0.471 | [1] 0.436 | SHP2 N-SH2 domain L43F 0.447 | SHP2 N-SH2 domain T42A 0.434 | SHP2 N-SH2 domain T52S 0.428 | [2] 0.513

B7: TUBGCP6_Y1624 (peptide)
chain: GCVSKYSGVFS
inactive: SHP2 C-SH2 domain E139D 1.07 | [1] 1.73 | SHP2 N-SH2 domain L43F 1.14 | SHP2 N-SH2 domain T42A 1.03 | SHP2 N-SH2 domain T52S 1.07 | [2] 1.31

B8: TTR_Y125_I127M (peptide)
chain: SGPRRYTMAAL
inactive: SHP2 C-SH2 domain E139D 0.381 | [1] 0.43 | SHP2 N-SH2 domain L43F 0.341 | SHP2 N-SH2 domain T42A 0.304 | SHP2 N-SH2 domain T52S 0.404 | [2] 0.379

B9: TUBA3E_Y103_S101N (peptide)
chain: DAANNYARGHY
inactive: SHP2 C-SH2 domain E139D 0.542 | [1] 0.49 | SHP2 N-SH2 domain L43F 0.467 | SHP2 N-SH2 domain T42A 0.436 | SHP2 N-SH2 domain T52S 0.61 | [2] 0.569

B10: TXNRD2_Y70_A66S (peptide)
chain: VSVVDYVEPSP
inactive: SHP2 C-SH2 domain E139D 0.663 | [1] 0.679 | SHP2 N-SH2 domain L43F 0.735 | SHP2 N-SH2 domain T42A 0.533 | SHP2 N-SH2 domain T52S 0.828 | [2] 0.694

B11: TUBB3_Y422 (peptide)
chain: DLVSEYQQYQD
inactive: SHP2 C-SH2 domain E139D 0.613 | [1] 0.578 | SHP2 N-SH2 domain L43F 0.649 | SHP2 N-SH2 domain T42A 0.582 | SHP2 N-SH2 domain T52S 0.641 | [2] 0.742

B12: TUBA1A_Y262_P263T (peptide)
chain: TNLVPYTRIHF
active: SHP2 C-SH2 domain E139D 6.62 | [1] 7.84 | SHP2 N-SH2 domain L43F 13.5 | SHP2 N-SH2 domain T42A 26.8 | SHP2 N-SH2 domain T52S 14.7 | [2] 6.96

B13: TTN_Y33421 (peptide)
chain: TRTEAYAVSSF
inactive: SHP2 C-SH2 domain E139D 0.763 | [1] 0.629 | SHP2 N-SH2 domain L43F 0.713 | SHP2 N-SH2 domain T42A 0.532 | SHP2 N-SH2 domain T52S 0.488 | [2] 0.73

B14: TUBB3_Y422_D417N_YF (peptide)
chain: NLVSEYQQFQD
inactive: SHP2 C-SH2 domain E139D 0.828 | [1] 0.685 | SHP2 N-SH2 domain L43F 0.795 | SHP2 N-SH2 domain T42A 0.675 | SHP2 N-SH2 domain T52S 0.885 | [2] 0.874

B15: TUBA4A_Y319_R320H (peptide)
chain: ACCLLYHGDVV
inactive: SHP2 C-SH2 domain E139D 1.95 | [1] 1.74 | SHP2 N-SH2 domain L43F 1.68 | SHP2 N-SH2 domain T42A 1.06 | SHP2 N-SH2 domain T52S 1.56 | [2] 1.55

B16: TUBA1A_Y185_I188L (peptide)
chain: AVVEPYNSLLT
inactive: SHP2 C-SH2 domain E139D 0.99 | [1] 0.77 | SHP2 N-SH2 domain L43F 1.06 | SHP2 N-SH2 domain T42A 0.871 | SHP2 N-SH2 domain T52S 0.997 | [2] 0.78

B17: TTN_Y33421_E33419D (peptide)
chain: TRTDAYAVSSF
inactive: SHP2 C-SH2 domain E139D 0.701 | [1] 0.893 | SHP2 N-SH2 domain L43F 0.818 | SHP2 N-SH2 domain T42A 0.655 | SHP2 N-SH2 domain T52S 0.714 | [2] 1.05

B18: TUBB2B_Y208_I210T (peptide)
chain: DNEALYDTCFR
inactive: SHP2 C-SH2 domain E139D 0.633 | [1] 0.788 | SHP2 N-SH2 domain L43F 0.66 | SHP2 N-SH2 domain T42A 0.523 | SHP2 N-SH2 domain T52S 0.576 | [2] 0.723

B19: TTN_Y32175_T32171N_YF (peptide)
chain: SNKELYEKFMI
inactive: SHP2 C-SH2 domain E139D 1.03 | [1] 0.9 | SHP2 N-SH2 domain L43F 0.965 | SHP2 N-SH2 domain T42A 0.839 | SHP2 N-SH2 domain T52S 0.865 | [2] 0.876

B20: TUBB2B_Y208 (peptide)
chain: DNEALYDICFR
inactive: SHP2 C-SH2 domain E139D 0.844 | [1] 1.34 | SHP2 N-SH2 domain L43F 1.01 | SHP2 N-SH2 domain T42A 0.843 | SHP2 N-SH2 domain T52S 0.831 | [2] 1.41

B21: TUBA3E_Y399 (peptide)
chain: KFDLMYAKWAF
inactive: SHP2 C-SH2 domain E139D 2.51 | [1] 1.62 | SHP2 N-SH2 domain L43F 1.83 | SHP2 N-SH2 domain T42A 2.08 | SHP2 N-SH2 domain T52S 2.09 | [2] 2.75

B22: TUBB2B_Y200 (peptide)
chain: NTDETYCIDNE
inactive: SHP2 C-SH2 domain E139D 0.69 | [1] 0.574 | SHP2 N-SH2 domain L43F 0.594 | SHP2 N-SH2 domain T42A 0.57 | SHP2 N-SH2 domain T52S 0.618 | [2] 0.769

B23: TUBA1A_Y399_R402H (peptide)
chain: KFDLMYAKHAF
inactive: SHP2 C-SH2 domain E139D 0.927 | [1] 0.821 | SHP2 N-SH2 domain L43F 1.02 | SHP2 N-SH2 domain T42A 0.934 | SHP2 N-SH2 domain T52S 1.05 | [2] 0.89

B24: TWNK_Y508_Y508C (peptide)
chain: HAVYVCDICHV
inactive: SHP2 C-SH2 domain E139D 3.14 | [1] 3.1 | SHP2 N-SH2 domain L43F 2.79 | SHP2 N-SH2 domain T42A 2.4 | SHP2 N-SH2 domain T52S 2.95 | [2] 2.7

B25: TUBGCP6_Y1624_V1621L (peptide)
chain: GCLSKYSGVFS
inactive: SHP2 C-SH2 domain E139D 1.24 | [1] 1.05 | SHP2 N-SH2 domain L43F 0.913 | SHP2 N-SH2 domain T42A 0.885 | SHP2 N-SH2 domain T52S 0.884 | [2] 0.962

B26: TUBA3E_Y103_S101N_YF (peptide)
chain: DAANNYARGHF
inactive: SHP2 C-SH2 domain E139D 0.602 | [1] 0.516 | SHP2 N-SH2 domain L43F 0.917 | SHP2 N-SH2 domain T42A 0.522 | SHP2 N-SH2 domain T52S 0.928 | [2] 0.678

B27: TUBA4A_Y210 (peptide)
chain: DNEAIYDICRR
inactive: SHP2 C-SH2 domain E139D 0.699 | [1] 0.842 | SHP2 N-SH2 domain L43F 0.768 | SHP2 N-SH2 domain T42A 0.85 | SHP2 N-SH2 domain T52S 0.596 | [2] 0.907

B28: TUBB3_Y422_D417N (peptide)
chain: NLVSEYQQYQD
inactive: SHP2 C-SH2 domain E139D 0.824 | [1] 0.725 | SHP2 N-SH2 domain L43F 0.882 | SHP2 N-SH2 domain T42A 0.63 | SHP2 N-SH2 domain T52S 0.823 | [2] 0.81

B29: TTR_Y125_I127V (peptide)
chain: SGPRRYTVAAL
inactive: SHP2 C-SH2 domain E139D 0.539 | [1] 0.631 | SHP2 N-SH2 domain L43F 0.605 | SHP2 N-SH2 domain T42A 0.451 | SHP2 N-SH2 domain T52S 0.452 | [2] 0.765

B30: TUBA1A_Y282_L286F (peptide)
chain: SAEKAYHEQFS
inactive: SHP2 C-SH2 domain E139D 0.637 | [1] 0.485 | SHP2 N-SH2 domain L43F 0.439 | SHP2 N-SH2 domain T42A 0.532 | SHP2 N-SH2 domain T52S 0.568 | [2] 0.599

B31: TUBA3E_Y161 (peptide)
chain: RLSVDYSKKSK
inactive: SHP2 C-SH2 domain E139D 1.02 | [1] 0.644 | SHP2 N-SH2 domain L43F 0.732 | SHP2 N-SH2 domain T42A 0.474 | SHP2 N-SH2 domain T52S 0.563 | [2] 0.366

B32: TWNK_Y508_Y508C_YF (peptide)
chain: HAVFVCDICHV
active: SHP2 C-SH2 domain E139D 3.91 | SHP2 N-SH2 domain L43F 3.37 | SHP2 N-SH2 domain T52S 3.3
inactive: [1] 2.85 | SHP2 N-SH2 domain T42A 2.59 | [2] 2.29

B33: TUBA3E_Y103 (peptide)
chain: DAASNYARGHY
inactive: SHP2 C-SH2 domain E139D 0.442 | [1] 0.432 | SHP2 N-SH2 domain L43F 0.416 | SHP2 N-SH2 domain T42A 0.49 | SHP2 N-SH2 domain T52S 0.408 | [2] 0.456

B34: TTR_Y125_T126N (peptide)
chain: SGPRRYNIAAL
inactive: SHP2 C-SH2 domain E139D 0.669 | [1] 0.379 | SHP2 N-SH2 domain L43F 0.506 | SHP2 N-SH2 domain T42A 0.6 | SHP2 N-SH2 domain T52S 0.465 | [2] 0.58

B35: TTN_Y31722_V31725I (peptide)
chain: ENAGYYFRISA
inactive: SHP2 C-SH2 domain E139D 0.736 | [1] 0.76 | SHP2 N-SH2 domain L43F 0.945 | SHP2 N-SH2 domain T42A 0.417 | SHP2 N-SH2 domain T52S 0.492 | [2] 0.895

B36: TUBB2B_Y200_C201S (peptide)
chain: NTDETYSIDNE
inactive: SHP2 C-SH2 domain E139D 0.474 | [1] 0.564 | SHP2 N-SH2 domain L43F 0.501 | SHP2 N-SH2 domain T42A 0.626 | SHP2 N-SH2 domain T52S 0.494 | [2] 0.746

B37: TUBB8_Y340 (peptide)
chain: DKNSSYFADWL
inactive: SHP2 C-SH2 domain E139D 0.889 | [1] 0.931 | SHP2 N-SH2 domain L43F 0.993 | SHP2 N-SH2 domain T42A 0.882 | SHP2 N-SH2 domain T52S 0.97 | [2] 0.912
